Assay results reported in the RNAGym collection of RNA variant scans (doi:10.1073/pnas.2313332121).
Variants at the floor of the assay are shown more often than the library holds them.

B1: TPR 5TU (parent)
chain: GGAUCUUCUCGAUCUAACAAAAAAGACAAAUCUGCCACAAAGCUUGAGAGCAUCUUCGGAUGCAGAGGCGGCAGCCUUCGGUGGCGCGAUAGCGCCAACGUUCUCAACUAUGACACGCAAAACGCGUGCUCCGUUGAAUGGAGUUUAUCAUG

Variants of: B1
Assay: polymerase ribozyme fitness, log enrichment relative to wild type (log ratio); higher = more active; in vitro selection for triplet polymerase activity
How it was run: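 Fitness measures genotype enrichment against wild-type enrichment on a logarithmic scale, with inverse-variance-weighted averaging of replicates. The logarithm is base 2, and genotypes were kept only with ≥10 input reads and ≥1 read per output in Illumina sequencing. The sequenced libraries came from one triplicate in vitro selection round, including frozen incubation at −7 °C, of PCR-built, transcribed mutant libraries of each subunit of a heterodimeric triplet polymerase ribozyme.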

Variant | polymerase ribozyme fitness (log ratio)
A29U C63G G68A U78G C85U G100A | ≤ -4.2
A29C A49C U56G G62U G80A C95G C105G G126A G140U | ≤ -4.2
A29G A41C A47G C85G G92U U104G A137G G141U | ≤ -4.2
A28U C43U A52C U55A A91U C105G G136C U151A | ≤ -4.2
A29G C69G A89U C96A | ≤ -4.2
A29U C57G G59A A73G C95U C96G C99U G100A G124A C149G | ≤ -4.2
A29G C54A C79A G94C G136C | ≤ -4.2
A28U U45A G48U A98G | ≤ -4.2
A28U G83A A91G A115U U145A | ≤ -4.2
A28U C32A C85G G141U | ≤ -4.2
A28U C43A G86U | ≤ -4.2
A28U U33C U45A C75G C95U C125U | ≤ -4.2
A29C C36A U55A U61G C87A | ≤ -4.2
A29G C54A C95G G133U | ≤ -4.2
A29U A40G U53A U77C C93G A137G G141A | ≤ -4.2
A29U A39G C85A A120C U146G | ≤ -4.2
A28U U33G A41C G86A U111A C116A C123U | ≤ -4.2
A28U G100C U102A | ≤ -4.2
A28U A52U C75U C87U C93G | ≤ -4.2
A29G G68U A91G | ≤ -4.2
A29G C96U G124A | ≤ -4.2

Variant | polymerase ribozyme fitness (log ratio)
A28U U55A | -4.13
A28U U31A G67C C76A C93G C132U | ≤ -4.2
A28U A73U A91G C125A A137C | ≤ -4.2
A28U G86A G100C G140U | ≤ -4.2
A28U C36G A107U U148A | ≤ -4.2
A29G A39G A49G G50A U61A C85G G88A A97C G143U | ≤ -4.2
A28U G58C C96A A97G U144A U145G | ≤ -4.2
A29C U101A U102C G141A | ≤ -4.2
A29C C35U U44C C57A C87A A97C C105U | ≤ -4.2
A29G G62U G141C | ≤ -4.2
A28U U55G C85G G88A A89U C103U G143C | ≤ -4.2
A28U G42A G50C A64G C79U G83U U134A A138U U144A | ≤ -4.2
A29C G42U C54G C93G G94C A98U G136A A142G G152U | ≤ -4.2
A28U C54A U55A U101G U111A | ≤ -4.2
A29C C35A G94A C123U | ≤ -4.2
A29C G59A C75U | ≤ -4.2
A29U A30U U55G A73G C93G C103U A122G G141U | ≤ -4.2
A29C A52G U55A C75G A106U A110G A121U U127A | ≤ -4.2
A29G A37G A52U C116U | ≤ -4.2
A28U C85U U134C A142G | ≤ -4.2
A29G U55G C75G A89C G141C | ≤ -4.2

Variant | polymerase ribozyme fitness (log ratio)
A28U A47U G62A G83A G84C C131G | ≤ -4.2
A28U A47C G74C C95U A142C C149A | ≤ -4.2
A29C A49G G50C C76A G124A U135G | ≤ -4.2
A28U G50A C57A U78G G88C C103A U135G | ≤ -4.2
A29G A52C G67C C75U U77A A91G C93U A137U A150G | ≤ -4.2
A28U C32U A47U C85G G128U U130C | ≤ -4.2
A29U C51G G58C G71A A91G C95A C103G U151A G152A | ≤ -4.2
A29G G94A C95G U127A U148G | ≤ -4.2
A29C C85A G112A | ≤ -4.2
A28U G67A G74A G86C C108A C132A | ≤ -4.2
A28U A119U | ≤ -4.2
A29C A37C G74A A97G U130A | ≤ -4.2
A28U G88A A107G A142C U151A | ≤ -4.2
A29C U56C G58C C79G A121G G126A U144A | ≤ -4.2
A29C A49C C93U A115U G133C | ≤ -4.2
A29C A60C G83U A107U A142C | ≤ -4.2
A28U G70U G83C C131U | ≤ -4.2
A29C A37G C87A | ≤ -4.2
A29C U31G C54A U104C | ≤ -4.2
A29G G68A G128U G133C | ≤ -4.2
A29G C51U G62A G84A U139G | ≤ -4.2

Variant | polymerase ribozyme fitness (log ratio)
A28U G59U G70A C93G C95A A107U G117C A121G | ≤ -4.2
A29G A60C A97G G100U A121G | ≤ -4.2
A29C A40G A52C U53A C76A A115G U144G | ≤ -4.2
A29U A60C U61A G94C A120G U130G | ≤ -4.2
A29G C57U C95G C118U | ≤ -4.2
A29G G34A A39U C72A U82G C96G | ≤ -4.2
A29U C43U U45A A110C | ≤ -4.2
A29U C32U A39U G42A | ≤ -4.2
A29G G34A G112U U144A | ≤ -4.2
A29C C63U A89G A107U A122G U130A A147U | ≤ -4.2
A29C G92A G143C U146C | ≤ -4.2
A29U A40C G46A G67A G81A C85G A113C A137G | ≤ -4.2
A28U C79G C99U A106U A113U C118A | ≤ -4.2
A29C A52C G88U | ≤ -4.2
A29U A73G G80C A122U G133A | ≤ -4.2
A28U U61G C87G | -4.14
A29G U61G C72G | ≤ -4.2
A29G C32U C57A A64G A91G C118U U145C U146A | ≤ -4.2
A29C U45A C95G | ≤ -4.2
A29G U61A G94U G126U G133U U151G | ≤ -4.2
